{"source": "patent US5869448A", "about": "“Cyclic CS-1 peptidomimetics, compositions and methods of using same” (Cytel Corporation, priority 1995, dated 1999)", "note": "Not every detail of the peptide structures is certain; ends, links or a residue may be inferred. Positions of bridges follow the written chain, without caps; N, C: chain ends. Non-standard residues stand in square brackets, D forms with d. Residues, ends and D or L forms follow the SMILES beside them. No end group written: not given here. ξ: configuration not given here. *: point of attachment. NMeF = CN[C@@H](Cc1ccccc1)C(=O)O; dPen = CC(C)(S)[C@@H](N)C(=O)O; PhAc = O=C(Cc1ccccc1)*; ξD = NC(CC(=O)O)C(=O)O; ξDap = NCC(N)C(=O)O"}
{"biological_target": "T1, VLA-4/sVCAM-1 (Homo sapiens, UniProt P05556+P13612)", "T1 construct": "host or cells: Jurkat cells (VLA-4). sVCAM-1 was made in house in transfected human 293 cells (ATCC CRL 1573) and purified from supernatant", "T1 sequence (P13612 34-1032)": "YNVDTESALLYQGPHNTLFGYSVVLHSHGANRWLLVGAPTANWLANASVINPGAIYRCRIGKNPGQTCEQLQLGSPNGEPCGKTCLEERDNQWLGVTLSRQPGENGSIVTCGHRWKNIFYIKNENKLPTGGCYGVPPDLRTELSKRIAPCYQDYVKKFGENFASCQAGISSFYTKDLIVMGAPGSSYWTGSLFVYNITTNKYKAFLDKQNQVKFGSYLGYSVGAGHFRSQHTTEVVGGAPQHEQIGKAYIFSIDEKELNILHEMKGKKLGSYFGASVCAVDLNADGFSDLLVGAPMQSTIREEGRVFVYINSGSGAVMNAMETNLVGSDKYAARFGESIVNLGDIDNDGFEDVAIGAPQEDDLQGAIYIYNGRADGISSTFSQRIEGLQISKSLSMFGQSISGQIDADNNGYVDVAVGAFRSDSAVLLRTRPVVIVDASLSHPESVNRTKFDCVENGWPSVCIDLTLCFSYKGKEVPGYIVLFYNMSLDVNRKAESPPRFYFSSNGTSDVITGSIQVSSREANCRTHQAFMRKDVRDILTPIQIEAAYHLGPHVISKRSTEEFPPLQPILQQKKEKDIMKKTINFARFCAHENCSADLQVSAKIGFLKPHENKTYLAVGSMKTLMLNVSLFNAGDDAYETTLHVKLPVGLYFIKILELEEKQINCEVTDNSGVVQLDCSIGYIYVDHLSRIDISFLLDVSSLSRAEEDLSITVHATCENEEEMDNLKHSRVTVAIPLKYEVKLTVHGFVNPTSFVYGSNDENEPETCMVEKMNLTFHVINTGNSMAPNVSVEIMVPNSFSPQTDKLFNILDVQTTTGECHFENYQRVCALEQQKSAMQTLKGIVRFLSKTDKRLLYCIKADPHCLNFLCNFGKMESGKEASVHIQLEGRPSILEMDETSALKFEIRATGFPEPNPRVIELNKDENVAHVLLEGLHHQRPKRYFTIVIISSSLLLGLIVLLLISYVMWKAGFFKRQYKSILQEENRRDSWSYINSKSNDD", "T1 sequence (P05556 21-798)": "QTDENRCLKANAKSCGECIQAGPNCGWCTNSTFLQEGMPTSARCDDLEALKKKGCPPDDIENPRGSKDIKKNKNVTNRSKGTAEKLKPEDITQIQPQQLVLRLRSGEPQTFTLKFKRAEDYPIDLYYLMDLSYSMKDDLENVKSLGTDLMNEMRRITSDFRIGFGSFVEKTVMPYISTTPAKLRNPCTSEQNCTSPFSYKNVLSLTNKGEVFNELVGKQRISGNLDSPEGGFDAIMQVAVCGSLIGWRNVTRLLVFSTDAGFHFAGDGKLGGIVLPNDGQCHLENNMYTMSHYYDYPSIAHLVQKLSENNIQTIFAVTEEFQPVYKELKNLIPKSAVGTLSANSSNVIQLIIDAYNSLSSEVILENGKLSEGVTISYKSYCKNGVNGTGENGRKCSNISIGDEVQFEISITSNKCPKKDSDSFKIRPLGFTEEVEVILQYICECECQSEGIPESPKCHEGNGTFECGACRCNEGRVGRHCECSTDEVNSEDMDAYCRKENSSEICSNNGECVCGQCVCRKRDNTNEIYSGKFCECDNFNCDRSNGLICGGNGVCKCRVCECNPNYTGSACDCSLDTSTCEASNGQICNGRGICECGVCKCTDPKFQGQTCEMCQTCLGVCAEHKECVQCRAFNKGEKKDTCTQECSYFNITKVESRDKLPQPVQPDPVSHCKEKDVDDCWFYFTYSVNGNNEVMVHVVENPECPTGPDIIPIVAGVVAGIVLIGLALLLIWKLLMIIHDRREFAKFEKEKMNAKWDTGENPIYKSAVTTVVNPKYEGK", "assay": "In vitro inhibition of binding of Jurkat cells to solid phase-bound sVCAM-1", "format": "cell-based", "settings": "not given", "protocol": "Assays conducted using sVCAM-1 as solid phase-bound antigen were carried out substantially identically to those using CS-1. The sVCAM-1 polypeptide used had the same amino acid residue sequence as the materials described in Lobb et al., Biochem. Biophys. Res. Commun., 178:1498-1504 (1991) and Cybulsky et al., Proc. Natl. Acad. Sci., USA, 88:7859-7863 (1991). Human embryonal kidney line 293 (ATCC CRL 1573) cells were co-transfected with a plasmid (pCDNAI;invitrogen) containing the sVCAM-1 DNA sequence and plasmid pSV2-neo [Southern et al., J. Mol. Appl. Gen., 1:327341 (1992)]. Cells were selected in DMEM, 10 percent fetal bovine serum and 600 μg/ml Geneticin. sVCAM-1 was purified from supernatants using a column containing monoclonal antibody P3H12 (anti-human VCAM-1) coupled to Sepharose 4B. The sVCAM-1 was eluted using 0.1M glycine at pH 2.5 following 50 column washes with PBS, pH 7.2. The eluate was immediately neutralized and dialyzed against PBS for use."}
{"compound": "CC(C)C[C@H](NC(=O)Cc1ccccc1)C(=O)N[C@@H](CC(=O)O)C(=O)N[C@@H](CO)C(=O)N1CCC[C@@H]1C(N)=O", "note": "[XLDSp, .phi.Ac-LeuAspSer-D-Pro, reference compound] (PhAc-LDS[dP]-NH2)", "inhibition of binding between solid phase-bound sVCAM-1 and Jurkat cells": "no inhibition"}
{"biological_target": "T2, VLA-4/CS-1 (Homo sapiens, UniProt P05556+P13612)", "T2 construct": "inflammatory cells that contain the VLA-4 receptor [Jurkat cells; host or cells: Jurkat (human T lymphoblastic line)", "T2 sequence (P13612 34-1032)": "as the sequence (P13612 34-1032) above", "T2 sequence (P05556 21-798)": "as the sequence (P05556 21-798) above", "assay": "In vitro inhibition of binding of 51Cr-labeled Jurkat cells to solid phase-bound CS-1 peptide", "format": "cell-based", "settings": "Table 1; normalized IC50, standard peptide of SEQ ID NO:6 = 1", "protocol": "(§1) Binding inhibition is measured here as a concentration of peptide that inhibits one-half the binding between a standard number of Jurkat cells and a standard amount of CS-1 peptide bound to the surface of a microtiter plate well. Those concentrations are conveniently expressed as IC50 values, smaller numbers indicating a lower concentration required to inhibit 50 percent binding and therefore greater potency. Further specifics of this assay are provided hereinafter.\n(§2) Jurkat cells (ATCC TIB 152), a human T lymphoblastic line, labeled with ^51 chromium were used to assay in vitro binding inhibition provided by various peptides discussed herein.\n(§3) The plates were prepared as follows: The 25-mer CS-1 peptide (SEQ ID NO:5) dissolved at 0.5-1 μg/ml in a buffer of 0.1M NaHCO3 at pH 9.5 that also contained 10 μg/ml of bovine serum albumin (BSA) or a conjugate of the CS-1 peptide linked to ovalbumin (CS-1-OVA) dissolved at 1-2.5 μg/ml in the same buffer was used as the substrate. Each well of the microtiter plates was coated with 50 μl of substrate or buffer alone for controls. The wells were permitted to dry out completely and were then rinsed twice with PBS at pH 7.4. Non-specific binding sites of each well were then blocked using 200 μl per well of RPMI/1 percent BSA for two hours at room temperature. Both solid phase-affixed substrates provided similar results.\n(§4) Jurkat cells (3-5×10^6 cells) were placed into a 15 ml FALCON™ round-bottom tube with a cap. The tube was centrifuged, and the extra medium was then removed.\n(§5) Two hundred microliters of a ^51 Cr labeling solution were added to the centrifuged cells and maintained in contact with the cells for 90-120 minutes in a warm room. This procedure typically provides about 50,000-100,000 cpm/well with about 80-100 percent cell viability. Longer contact times provide a greater amount of labeling but lower cell viability.\n(§6) The labeled cells were washed with (i) complete medium, (ii) 1 mM EDTA/PBS and then (iii) RPM1/1 percent BSA free of serum components. The cells were centrifuged after each washing. The cells were finally resuspended in serum-free RPMI/1 percent BSA at a concentration of 1×10^6 viable cells/ml, which provides a concentration that is diluted by one-half in the assay.\n(§7) Cyclic inhibitor peptides were prepared as stock solutions at 20 mg/ml in DMSO in 1.5 ml cryogenic screwcap vials, and were stored at -70° C. Using FLOW™ round-bottom or V-bottom microtiter plates, the inhibitor peptides were prepared at twice the assay concentration in RPMI/1 percent BSA at 60 μl/well.\n(§8) Four initial dilutions were typically used.\n(§9) The ^51 Cr-labeled cells (1×10^6 cells at 60 μl/well) were then admixed with the diluted cyclic peptide solutions. The admixtures were maintained at room temperature (about 22° C.) for 30 minutes.\n(§10) One hundred microliters of each inhibitor peptide/cell admixture were transferred to the substrate-coated wells. This was done in triplicate for each dilution. The resulting plates were incubated for 30 minutes at 37° C. and then washed gently three times with RPMI/1 percent BSA at 200 μl/well. Binding was observed microscopically, particularly after the second wash.\n(§11) The bound cells were then lysed by the addition of a 0.5 percent solution of sodium dodecylsulfate in water at 100 μl/well. The resulting solutions were then processed for counting and calculation of IC50 values following usual procedures. Appropriate positive and negative controls were used with each plate so that the results of separate assays could be normalized and compared.\n(§12) The potency data of Table 1 and Table 2 are so normalized. The absolute IC50 value for the peptide of SEQ ID NO:7 is 0.3 μM."}
{"compound": "GPEILDVPST [compound 6]", "Relative Potency": 1}
{"biological_target": "T2, VLA-4/CS-1", "assay": "In vitro inhibition of binding of 51Cr-labeled Jurkat cells to solid phase-bound CS-1 peptide", "format": "cell-based", "settings": "Table 2; normalized, relative to standard peptide of SEQ ID NO:6", "protocol": "as §1, §2, §3, §4, §5, §6, §7, §8, §9, §10, §11, §12"}
{"compound": "NC(=O)[C@@H]1CSSC[C@H](NC(=O)Cc2ccccc2)C(=O)N[C@@H](CC(=O)O)C(=O)NCC(=O)N1", "note": "(PhAc-CDGC-NH2; disulfide 1-4)", "Relative Potency": ".63"}
{"compound": "CC1(C)SSC[C@H](C(N)=O)NC(=O)[C@H](Cc2ccccc2)NC(=O)[C@H](CC(=O)O)NC(=O)[C@@H]1NC(=O)Cc1ccccc1", "note": "(PhAc-[dPen]DF[dC]-NH2; disulfide 1-4)", "Relative Potency": 0}
{"compound": "NC(=O)[C@@H]1CSSC[C@H](NC(=O)Cc2ccccc2)C(=O)N[C@@H](CCC(=O)O)C(=O)N[C@@H](Cc2ccccc2)C(=O)N1", "note": "(PhAc-CEFC-NH2; disulfide 1-4)", "Relative Potency": 3.13}
{"compound": "NC(=O)[C@H]1CSSC[C@@H](NC(=O)Cc2ccccc2)C(=O)N[C@@H](CC(=O)O)C(=O)N[C@@H](Cc2ccccc2)C(=O)N1", "note": "(PhAc-[dC]DF[dC]-NH2; disulfide 1-4)", "Relative Potency": ".59"}
{"compound": "NC(=O)[C@@H]1CSSC[C@H](NC(=O)Cc2ccccc2)C(=O)N[C@@H](CC(=O)O)C(=O)N[C@H](Cc2ccccc2)C(=O)N1", "note": "(PhAc-CD[dF]C-NH2; disulfide 1-4)", "Relative Potency": ".63"}
{"compound": "NC(=O)C[C@@H]1NC(=O)[C@@H](NC(=O)Cc2ccccc2)CSSC[C@@H](C(N)=O)NC(=O)[C@H](Cc2ccccc2)NC1=O", "note": "(PhAc-CNFC-NH2; disulfide 1-4)", "Relative Potency": ".63"}
{"compound": "CC1(C)SSC[C@@H](C(N)=O)NC(=O)[C@H](Cc2ccccc2)NC(=O)[C@H](CC(=O)O)NC(=O)[C@@H]1NC(=O)Cc1ccccc1", "note": "(PhAc-[dPen]DFC-NH2; disulfide 1-4)", "Relative Potency": 0}
{"compound": "NC(=O)[C@@H]1CSSC[C@@H](NC(=O)Cc2ccccc2)C(=O)N[C@@H](CC(=O)O)C(=O)N[C@@H](Cc2ccccc2)C(=O)N1", "note": "(PhAc-[dC]DFC-NH2; disulfide 1-4)", "Relative Potency": 0}
{"compound": "CN1C(=O)[C@H](CC(=O)O)NC(=O)[C@@H](NC(=O)Cc2ccccc2)CSSC[C@@H](C(N)=O)NC(=O)[C@@H]1Cc1ccccc1", "note": "(PhAc-CD[NMeF]C-NH2; disulfide 1-4)", "Relative Potency": 0}
{"compound": "NC(=O)C1CC(=O)NCC(NC(=O)Cc2ccccc2)C(=O)N[C@@H](CC(=O)O)C(=O)N[C@@H](Cc2ccccc2)C(=O)N1", "note": "(stereo partly drawn) (PhAc-[ξDap]DF[ξD]-NH2; lactam 1-4)", "Relative Potency": 1.64}
{"compound": "CC1(C)SSC[C@H](NC(=O)Cc2ccccc2)C(=O)N[C@@H](CC(=O)O)C(=O)N[C@@H](Cc2ccccc2)C(=O)N[C@H]1C(N)=O", "note": "(PhAc-CDF[dPen]-NH2; disulfide 1-4)", "Relative Potency": 98.9}
{"compound": "CNC(=O)[C@@H]1CSSC[C@H](NC(=O)Cc2ccccc2)C(=O)N[C@@H](CC(=O)O)C(=O)N[C@@H](Cc2ccccc2)C(=O)N1", "note": "(PhAc-CDFC-NHMe; disulfide 1-4)", "Relative Potency": 232}
{"biological_target": "T2, VLA-4/CS-1", "assay": "In vitro inhibition of binding of 51Cr-labeled Jurkat cells to solid phase-bound CS-1 peptide", "format": "cell-based", "settings": "times more potent than standard 10-mer", "protocol": "as §1, §2, §3, §4, §5, §6, §7, §8, §9, §10, §11, §12"}
{"compound": "CC(C)C[C@H](NC(=O)Cc1ccccc1)C(=O)N[C@@H](CC(=O)O)C(=O)N[C@@H](CO)C(=O)N1CCC[C@@H]1C(N)=O", "note": "[XLDSp, .phi.Ac-LeuAspSer-D-Pro, reference compound] (PhAc-LDS[dP]-NH2)", "inhibition potency relative to the Standard 10-mer of SEQ ID NO:6": "about 17"}
